These are yes or no findings as the source states them, for the method shown. For part of these data: Binding seen in cells or lysates may run through a third protein. Some binding calls cover weakened binding; strength is not graded here. For part of these data: Where a sequence is shown, tags or fusion partners need not be part of it.
Columns and labels:
Flag-tagged Pdia4 = biological target: T1, Flag-tagged Pdia4 (UniProt P13667); experiment: co-IP; Jurkat cells co-transfected with His-tagged Stat3 or its mutants and Flag-tagged Pdia4; αFlag immunoprecipitation of lysates; immunoblot with αHis and αFlag
T1 sequence: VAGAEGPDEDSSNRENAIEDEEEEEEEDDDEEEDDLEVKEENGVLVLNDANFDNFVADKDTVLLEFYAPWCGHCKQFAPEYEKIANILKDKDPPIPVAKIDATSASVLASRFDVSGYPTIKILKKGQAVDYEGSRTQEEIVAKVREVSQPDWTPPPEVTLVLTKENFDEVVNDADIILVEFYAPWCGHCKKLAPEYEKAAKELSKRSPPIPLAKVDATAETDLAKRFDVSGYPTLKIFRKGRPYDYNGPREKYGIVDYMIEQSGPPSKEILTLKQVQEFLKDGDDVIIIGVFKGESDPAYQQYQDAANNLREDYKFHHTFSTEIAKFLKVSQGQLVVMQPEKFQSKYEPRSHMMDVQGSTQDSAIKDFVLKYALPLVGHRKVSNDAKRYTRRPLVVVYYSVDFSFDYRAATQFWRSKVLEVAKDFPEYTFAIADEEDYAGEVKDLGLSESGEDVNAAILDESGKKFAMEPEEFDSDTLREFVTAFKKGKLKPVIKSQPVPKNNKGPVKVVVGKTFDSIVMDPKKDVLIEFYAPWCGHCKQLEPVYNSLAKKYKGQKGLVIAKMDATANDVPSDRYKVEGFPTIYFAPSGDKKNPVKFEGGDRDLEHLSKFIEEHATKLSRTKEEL

Protein sequences, listed by entry. Tags and fused reporters are not part of them. Lines headed by an entry give the natural chain unless they say otherwise; changes in a name come on top.
UniProt P40763: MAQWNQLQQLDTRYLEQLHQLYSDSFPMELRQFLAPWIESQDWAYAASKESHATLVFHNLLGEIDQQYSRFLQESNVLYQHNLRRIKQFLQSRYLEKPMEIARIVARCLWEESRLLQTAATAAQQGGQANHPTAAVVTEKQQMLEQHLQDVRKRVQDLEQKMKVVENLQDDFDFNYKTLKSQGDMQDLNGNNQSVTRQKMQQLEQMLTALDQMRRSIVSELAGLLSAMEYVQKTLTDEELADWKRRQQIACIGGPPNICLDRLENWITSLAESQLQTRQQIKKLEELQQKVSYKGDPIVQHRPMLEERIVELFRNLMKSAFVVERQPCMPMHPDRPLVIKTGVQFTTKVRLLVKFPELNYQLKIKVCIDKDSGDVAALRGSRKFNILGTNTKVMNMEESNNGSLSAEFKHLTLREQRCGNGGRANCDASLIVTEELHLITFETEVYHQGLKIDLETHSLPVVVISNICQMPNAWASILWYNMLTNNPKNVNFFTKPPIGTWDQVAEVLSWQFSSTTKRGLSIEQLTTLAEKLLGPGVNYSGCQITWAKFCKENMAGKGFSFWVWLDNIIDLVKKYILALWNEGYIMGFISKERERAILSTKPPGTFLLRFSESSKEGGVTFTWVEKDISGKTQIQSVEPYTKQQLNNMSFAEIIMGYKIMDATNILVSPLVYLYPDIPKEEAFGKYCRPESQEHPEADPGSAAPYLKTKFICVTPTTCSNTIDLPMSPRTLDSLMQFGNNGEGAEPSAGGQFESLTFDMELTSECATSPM

[1] = biological target: T2, Protein disulfide isomerase a4 (Pdia4) in Jurkat total lysate (UniProt P13667); experiment: co-IP; total lysates of Jurkat cells incubated with αPdia4 or isotype antibodies plus protein G beads; immunoblot with αPdia4 and αStat3
T2 sequence: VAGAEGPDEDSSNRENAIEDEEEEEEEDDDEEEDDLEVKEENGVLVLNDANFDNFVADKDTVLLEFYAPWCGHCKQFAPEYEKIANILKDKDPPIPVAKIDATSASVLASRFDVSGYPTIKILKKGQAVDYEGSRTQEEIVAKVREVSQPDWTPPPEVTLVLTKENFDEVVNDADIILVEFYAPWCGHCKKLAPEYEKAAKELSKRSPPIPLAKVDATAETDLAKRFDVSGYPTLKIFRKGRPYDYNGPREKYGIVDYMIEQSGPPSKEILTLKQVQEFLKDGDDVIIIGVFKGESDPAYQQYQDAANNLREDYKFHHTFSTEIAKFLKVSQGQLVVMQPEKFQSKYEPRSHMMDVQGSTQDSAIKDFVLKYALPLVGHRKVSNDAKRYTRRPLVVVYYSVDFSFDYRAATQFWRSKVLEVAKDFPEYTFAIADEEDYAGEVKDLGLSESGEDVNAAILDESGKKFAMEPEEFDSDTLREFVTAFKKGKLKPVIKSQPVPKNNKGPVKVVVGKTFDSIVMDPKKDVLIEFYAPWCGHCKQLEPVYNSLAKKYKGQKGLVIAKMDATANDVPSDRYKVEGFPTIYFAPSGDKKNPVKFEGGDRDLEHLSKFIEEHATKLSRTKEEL

[2] = biological target: His-Stat3 (recombinant protein containing a His-tagged Stat3) (UniProt P40763); experiment: co-IP; recombinant His-tagged Stat3 incubated in vitro with His-tagged Pdia4 or His-tagged VP3; αStat3 precipitation; immunoblot with αHis; both purified
[3] = biological target: His-tagged Stat3, full length (pHis-Stat3) (UniProt P40763); experiment: pull-down; Jurkat cells co-transfected with Flag-tagged Pdia4 or its mutants and His-tagged Stat3; precipitation of lysates with nickel beads (called co-immunoprecipitation with nickel beads); immunoblot with αFlag and αHis

## His-tagged Stat3, full length (pHis-Stat3) (from UniProt P40763 1-770)
Flag-tagged Pdia4
  binding: binds

## His-tagged Stat3^1-143 (N-terminal domain of Stat3) (from UniProt P40763 1-143) (domain or fragment)
Flag-tagged Pdia4
  binding: binds

## Signal transducer and activator of transcription 3 (Stat3) in Jurkat total lysate (from UniProt P40763 1-770)
[1]
  binding: binds

B1: His-Pdia4 (His-tagged Pdia4, recombinant) (protein, UniProt P13667 21-645)
chain: VAGAEGPDEDSSNRENAIEDEEEEEEEDDDEEEDDLEVKEENGVLVLNDANFDNFVADKDTVLLEFYAPWCGHCKQFAPEYEKIANILKDKDPPIPVAKIDATSASVLASRFDVSGYPTIKILKKGQAVDYEGSRTQEEIVAKVREVSQPDWTPPPEVTLVLTKENFDEVVNDADIILVEFYAPWCGHCKKLAPEYEKAAKELSKRSPPIPLAKVDATAETDLAKRFDVSGYPTLKIFRKGRPYDYNGPREKYGIVDYMIEQSGPPSKEILTLKQVQEFLKDGDDVIIIGVFKGESDPAYQQYQDAANNLREDYKFHHTFSTEIAKFLKVSQGQLVVMQPEKFQSKYEPRSHMMDVQGSTQDSAIKDFVLKYALPLVGHRKVSNDAKRYTRRPLVVVYYSVDFSFDYRAATQFWRSKVLEVAKDFPEYTFAIADEEDYAGEVKDLGLSESGEDVNAAILDESGKKFAMEPEEFDSDTLREFVTAFKKGKLKPVIKSQPVPKNNKGPVKVVVGKTFDSIVMDPKKDVLIEFYAPWCGHCKQLEPVYNSLAKKYKGQKGLVIAKMDATANDVPSDRYKVEGFPTIYFAPSGDKKNPVKFEGGDRDLEHLSKFIEEHATKLSRTKEEL
[2]
  binding: binds

B2: Flag-tagged Pdia4 (protein, UniProt P13667 21-645)
chain: VAGAEGPDEDSSNRENAIEDEEEEEEEDDDEEEDDLEVKEENGVLVLNDANFDNFVADKDTVLLEFYAPWCGHCKQFAPEYEKIANILKDKDPPIPVAKIDATSASVLASRFDVSGYPTIKILKKGQAVDYEGSRTQEEIVAKVREVSQPDWTPPPEVTLVLTKENFDEVVNDADIILVEFYAPWCGHCKKLAPEYEKAAKELSKRSPPIPLAKVDATAETDLAKRFDVSGYPTLKIFRKGRPYDYNGPREKYGIVDYMIEQSGPPSKEILTLKQVQEFLKDGDDVIIIGVFKGESDPAYQQYQDAANNLREDYKFHHTFSTEIAKFLKVSQGQLVVMQPEKFQSKYEPRSHMMDVQGSTQDSAIKDFVLKYALPLVGHRKVSNDAKRYTRRPLVVVYYSVDFSFDYRAATQFWRSKVLEVAKDFPEYTFAIADEEDYAGEVKDLGLSESGEDVNAAILDESGKKFAMEPEEFDSDTLREFVTAFKKGKLKPVIKSQPVPKNNKGPVKVVVGKTFDSIVMDPKKDVLIEFYAPWCGHCKQLEPVYNSLAKKYKGQKGLVIAKMDATANDVPSDRYKVEGFPTIYFAPSGDKKNPVKFEGGDRDLEHLSKFIEEHATKLSRTKEEL
[3]
  binding: binds

B3: Flag-tagged Pdia4^280-646 (domain or fragment, UniProt P13667 280-645)
chain: IEQSGPPSKEILTLKQVQEFLKDGDDVIIIGVFKGESDPAYQQYQDAANNLREDYKFHHTFSTEIAKFLKVSQGQLVVMQPEKFQSKYEPRSHMMDVQGSTQDSAIKDFVLKYALPLVGHRKVSNDAKRYTRRPLVVVYYSVDFSFDYRAATQFWRSKVLEVAKDFPEYTFAIADEEDYAGEVKDLGLSESGEDVNAAILDESGKKFAMEPEEFDSDTLREFVTAFKKGKLKPVIKSQPVPKNNKGPVKVVVGKTFDSIVMDPKKDVLIEFYAPWCGHCKQLEPVYNSLAKKYKGQKGLVIAKMDATANDVPSDRYKVEGFPTIYFAPSGDKKNPVKFEGGDRDLEHLSKFIEEHATKLSRTKEEL
[3]
  binding: no binding
